The target of experiment [1] is HA-FANCD2 (unmodified) purified from HeLa cells (human) (UniProt Q9BXW9). The experiment is described as follows: co-IP; in vitro binding assay: 1μg of each protein with 10μg BSA in 20mM Tris-HCl pH 8.0, 150mM KCl, 10% glycerol, 2mM β-ME, 10μl, 37°C 1h; HA-FANCD2 immunoprecipitated on protein A sepharose with anti-HA IgG at 4°C, washed with 0.1% Tween-20, eluted with HA peptide; immunoblotting; both purified.

Protein sequences, listed by entry. Tags and fused reporters are not part of them.
UniProt Q9BXW9: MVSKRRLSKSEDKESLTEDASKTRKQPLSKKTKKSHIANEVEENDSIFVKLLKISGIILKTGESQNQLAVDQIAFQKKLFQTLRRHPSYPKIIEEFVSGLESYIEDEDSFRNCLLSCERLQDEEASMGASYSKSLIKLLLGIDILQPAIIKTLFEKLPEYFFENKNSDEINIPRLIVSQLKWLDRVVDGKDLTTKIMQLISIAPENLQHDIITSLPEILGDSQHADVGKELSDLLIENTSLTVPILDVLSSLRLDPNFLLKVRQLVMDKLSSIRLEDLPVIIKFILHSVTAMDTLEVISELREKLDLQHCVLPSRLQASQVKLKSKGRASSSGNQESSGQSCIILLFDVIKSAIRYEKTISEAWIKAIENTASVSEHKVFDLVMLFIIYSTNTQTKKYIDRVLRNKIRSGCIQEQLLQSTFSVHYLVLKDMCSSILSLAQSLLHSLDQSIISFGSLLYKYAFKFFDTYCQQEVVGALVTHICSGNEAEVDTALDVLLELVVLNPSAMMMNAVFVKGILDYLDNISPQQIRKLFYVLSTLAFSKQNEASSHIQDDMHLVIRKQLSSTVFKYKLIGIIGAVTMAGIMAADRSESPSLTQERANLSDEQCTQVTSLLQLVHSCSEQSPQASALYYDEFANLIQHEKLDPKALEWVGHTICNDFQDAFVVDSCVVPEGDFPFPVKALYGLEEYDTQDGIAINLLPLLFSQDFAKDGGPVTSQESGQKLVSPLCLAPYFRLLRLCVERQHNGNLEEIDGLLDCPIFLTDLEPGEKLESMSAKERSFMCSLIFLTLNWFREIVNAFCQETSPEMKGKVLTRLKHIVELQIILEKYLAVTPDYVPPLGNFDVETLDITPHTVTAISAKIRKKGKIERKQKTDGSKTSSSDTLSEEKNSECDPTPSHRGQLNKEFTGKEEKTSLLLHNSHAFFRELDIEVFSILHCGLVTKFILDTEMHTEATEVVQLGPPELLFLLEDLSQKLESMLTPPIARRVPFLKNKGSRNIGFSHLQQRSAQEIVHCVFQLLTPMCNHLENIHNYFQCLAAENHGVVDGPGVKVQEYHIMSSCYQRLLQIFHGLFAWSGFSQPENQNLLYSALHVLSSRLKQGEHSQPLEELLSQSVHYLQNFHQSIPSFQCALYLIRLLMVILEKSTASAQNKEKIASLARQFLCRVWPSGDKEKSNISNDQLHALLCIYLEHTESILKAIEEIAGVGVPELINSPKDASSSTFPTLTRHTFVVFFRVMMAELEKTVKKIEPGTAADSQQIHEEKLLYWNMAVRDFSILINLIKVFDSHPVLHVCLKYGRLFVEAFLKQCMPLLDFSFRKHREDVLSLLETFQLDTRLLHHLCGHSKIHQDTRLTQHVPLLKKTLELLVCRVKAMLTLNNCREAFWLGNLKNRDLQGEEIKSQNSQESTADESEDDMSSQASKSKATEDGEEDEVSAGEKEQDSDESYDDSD

Experiment [2] has as its target Flag-HA-FANCD2 purified from Sf9 cells (human) (UniProt Q9BXW9). The experiment is described as follows: SEC; FANCD2 alone, UHRF1 alone, or the two incubated together in vitro; Superdex 200 5/150 GL column; both purified.
Experiment [3] has the same target. The experiment is described as follows: co-IP; in vitro binding assay: 1μg of each protein with 10μg BSA in 20mM Tris-HCl pH 8.0, 150mM KCl, 10% glycerol, 2mM β-ME, 10μl, 37°C 1h; HA-FANCD2 immunoprecipitated on protein A sepharose with anti-HA IgG at 4°C, washed with 0.1% Tween-20, eluted with HA peptide; immunoblotting; both purified.
Experiment [4] deals with T1, Flag-HA-UHRF2 expressed in HeLa cells (human) (UniProt Q96PU4).
T1 sequence: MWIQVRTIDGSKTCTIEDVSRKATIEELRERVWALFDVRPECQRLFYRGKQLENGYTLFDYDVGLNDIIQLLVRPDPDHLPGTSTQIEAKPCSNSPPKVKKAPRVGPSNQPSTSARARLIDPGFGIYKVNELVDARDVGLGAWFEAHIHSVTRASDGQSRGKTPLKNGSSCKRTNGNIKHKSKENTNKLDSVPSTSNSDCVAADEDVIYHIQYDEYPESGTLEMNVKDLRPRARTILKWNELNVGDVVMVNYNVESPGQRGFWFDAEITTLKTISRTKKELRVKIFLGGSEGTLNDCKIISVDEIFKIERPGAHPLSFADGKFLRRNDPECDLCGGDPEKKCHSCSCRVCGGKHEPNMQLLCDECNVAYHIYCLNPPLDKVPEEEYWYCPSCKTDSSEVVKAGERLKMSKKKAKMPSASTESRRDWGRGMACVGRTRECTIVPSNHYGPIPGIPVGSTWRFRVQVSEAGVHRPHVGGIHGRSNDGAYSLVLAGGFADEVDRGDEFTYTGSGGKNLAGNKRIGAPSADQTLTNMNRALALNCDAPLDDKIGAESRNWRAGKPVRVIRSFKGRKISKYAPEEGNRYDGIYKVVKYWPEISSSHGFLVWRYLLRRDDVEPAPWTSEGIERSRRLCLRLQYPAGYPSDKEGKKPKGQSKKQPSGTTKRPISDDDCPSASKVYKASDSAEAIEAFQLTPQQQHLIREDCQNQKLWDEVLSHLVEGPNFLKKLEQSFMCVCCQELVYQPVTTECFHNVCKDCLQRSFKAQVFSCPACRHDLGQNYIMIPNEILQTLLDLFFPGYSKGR
The experiment is described as follows: co-IP; Flag-HA-UHRF1 or Flag-HA-UHRF2 expressed in HeLa cells, immunoprecipitated from nuclear extracts with anti-Flag antibodies after TMP/UVA treatment; blots with anti-UHRF2 and anti-UHRF1.

Experiment [5] addresses Flag-FANCD2 expressed in HeLaS3 cells depleted of endogenous FANCD2 (human) (UniProt Q9BXW9). The experiment is described as follows: co-IP; cells treated with TMP/UVA, 1 hour recovery; lysis with Benzonase and the cross-linker DSP (quenched with Tris), extraction in 300mM KCl; M2 anti-Flag agarose, elution with Flag peptide; immunoblotting.
Experiment [6] concerns the target T2, Flag-HA-UHRF1 expressed in HeLa cells (human) (UniProt Q96T88).
T2 sequence: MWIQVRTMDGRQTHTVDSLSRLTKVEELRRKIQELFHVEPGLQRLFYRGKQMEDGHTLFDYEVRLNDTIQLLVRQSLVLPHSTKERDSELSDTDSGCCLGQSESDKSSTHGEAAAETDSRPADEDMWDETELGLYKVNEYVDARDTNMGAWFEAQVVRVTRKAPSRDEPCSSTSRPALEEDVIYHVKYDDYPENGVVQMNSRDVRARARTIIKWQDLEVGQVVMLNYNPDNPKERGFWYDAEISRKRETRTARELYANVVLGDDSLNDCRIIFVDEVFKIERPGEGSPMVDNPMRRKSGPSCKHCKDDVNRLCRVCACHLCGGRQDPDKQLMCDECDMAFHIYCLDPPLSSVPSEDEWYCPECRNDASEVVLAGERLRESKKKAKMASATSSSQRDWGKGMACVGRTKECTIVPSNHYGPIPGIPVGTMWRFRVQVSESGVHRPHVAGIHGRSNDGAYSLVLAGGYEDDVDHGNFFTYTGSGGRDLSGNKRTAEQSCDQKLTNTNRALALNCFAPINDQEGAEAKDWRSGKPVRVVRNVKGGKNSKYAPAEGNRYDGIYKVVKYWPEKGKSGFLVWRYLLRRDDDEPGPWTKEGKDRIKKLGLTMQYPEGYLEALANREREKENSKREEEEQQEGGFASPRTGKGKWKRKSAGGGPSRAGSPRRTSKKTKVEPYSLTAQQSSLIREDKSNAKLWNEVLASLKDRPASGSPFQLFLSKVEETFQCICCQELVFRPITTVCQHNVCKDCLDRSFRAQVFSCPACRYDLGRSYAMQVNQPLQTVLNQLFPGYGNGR
The experiment is described as follows: co-IP; Flag-HA-UHRF1 or Flag-HA-UHRF2 expressed in HeLa cells, immunoprecipitated from nuclear extracts with anti-Flag antibodies after TMP/UVA treatment; blots with anti-UHRF2 and anti-UHRF1.

No constants are given. Whether binding was seen depends on the method and setting. For some of these results: Binding seen in cells or lysates may run through a third protein. Some results given as binding are weak or reduced against the parent protein; the word gives no strength. For some of these results: Where a sequence is shown, tags or fusion partners need not be part of it.

B1: 6xHis-UHRF1 purified from Sf9 cells (protein, UniProt Q96T88 1-793)
chain: T2 sequence
As to B1, in experiment [1], the binding result is recorded as “binds”.

B2: recombinant UHRF1 purified from Sf9 cells (gel filtration, tag not stated) (protein, UniProt Q96T88 1-793)
chain: T2 sequence
Take B2: the binding result in experiment [2] was “binds”.

B3: Strep-6xHis-Tev-UHRF1 purified from Sf9 cells (protein, UniProt Q96T88 1-793)
chain: T2 sequence
As for B3, in experiment [3], the binding entry is recorded as “binds”.

B4: endogenous UHRF1 (HeLa) (protein, UniProt Q96T88 1-793)
chain: T2 sequence
As for B4, the binding entry in experiment [4] and in experiment [5] was “binds” each time.

B5: endogenous UHRF2 (HeLa) (protein, UniProt Q96PU4 1-802)
chain: T1 sequence
Regarding B5, in experiment [6], the binding entry is given as “binds”.

B6: Flag-UHRF1 with the SRA domain deleted (protein, UniProt Q96T88-2)
chain: MGVFAVPPLSSDTMWIQVRTMDGRQTHTVDSLSRLTKVEELRRKIQELFHVEPGLQRLFYRGKQMEDGHTLFDYEVRLNDTIQLLVRQSLVLPHSTKERDSELSDTDSGCCLGQSESDKSSTHGEAAAETDSRPADEDMWDETELGLYKVNEYVDARDTNMGAWFEAQVVRVTRKAPSRDEPCSSTSRPALEEDVIYHVKYDDYPENGVVQMNSRDVRARARTIIKWQDLEVGQVVMLNYNPDNPKERGFWYDAEISRKRETRTARELYANVVLGDDSLNDCRIIFVDEVFKIERPGEGSPMVDNPMRRKSGPSCKHCKDDVNRLCRVCACHLCGGRQDPDKQLMCDECDMAFHIYCLDPPLSSVPSEDEWYCPECRNDASEVVLAGERLRESKKKAKMASATSSSQRDWGKGMACVGRTKECTIVREREKENSKREEEEQQEGGFASPRTGKGKWKRKSAGGGPSRAGSPRRTSKKTKVEPYSLTAQQSSLIREDKSNAKLWNEVLASLKDRPASGSPFQLFLSKVEETFQCICCQELVFRPITTVCQHNVCKDCLDRSFRAQVFSCPACRYDLGRSYAMQVNQPLQTVLNQLFPGYGNGR
Consider B6, for which the binding entry in experiment [3] is recorded as “no binding (tested: 1μg of each protein in 10μl)”.

These data come from publication PMC6193622.
